# PMC4336329 (PLoS ONE, 2015)
# Out of some 310,000 compounds screened, about 14,000 (4.5%) showed an effect of 50% or more. Effects have a minus sign here. Some of the results follow.
# Target: human ether-à-go-go-related gene (hERG) potassium channel (human, UniProt Q12809)
# Assay: primary screen, population patch clamp on CHO cells stably expressing hERG
# 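Also: peak tail current of the secondary pulse compared with the same well before compound.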
# Chain of human ether-à-go-go-related gene (hERG) potassium channel (Q12809 whole entry, looked up): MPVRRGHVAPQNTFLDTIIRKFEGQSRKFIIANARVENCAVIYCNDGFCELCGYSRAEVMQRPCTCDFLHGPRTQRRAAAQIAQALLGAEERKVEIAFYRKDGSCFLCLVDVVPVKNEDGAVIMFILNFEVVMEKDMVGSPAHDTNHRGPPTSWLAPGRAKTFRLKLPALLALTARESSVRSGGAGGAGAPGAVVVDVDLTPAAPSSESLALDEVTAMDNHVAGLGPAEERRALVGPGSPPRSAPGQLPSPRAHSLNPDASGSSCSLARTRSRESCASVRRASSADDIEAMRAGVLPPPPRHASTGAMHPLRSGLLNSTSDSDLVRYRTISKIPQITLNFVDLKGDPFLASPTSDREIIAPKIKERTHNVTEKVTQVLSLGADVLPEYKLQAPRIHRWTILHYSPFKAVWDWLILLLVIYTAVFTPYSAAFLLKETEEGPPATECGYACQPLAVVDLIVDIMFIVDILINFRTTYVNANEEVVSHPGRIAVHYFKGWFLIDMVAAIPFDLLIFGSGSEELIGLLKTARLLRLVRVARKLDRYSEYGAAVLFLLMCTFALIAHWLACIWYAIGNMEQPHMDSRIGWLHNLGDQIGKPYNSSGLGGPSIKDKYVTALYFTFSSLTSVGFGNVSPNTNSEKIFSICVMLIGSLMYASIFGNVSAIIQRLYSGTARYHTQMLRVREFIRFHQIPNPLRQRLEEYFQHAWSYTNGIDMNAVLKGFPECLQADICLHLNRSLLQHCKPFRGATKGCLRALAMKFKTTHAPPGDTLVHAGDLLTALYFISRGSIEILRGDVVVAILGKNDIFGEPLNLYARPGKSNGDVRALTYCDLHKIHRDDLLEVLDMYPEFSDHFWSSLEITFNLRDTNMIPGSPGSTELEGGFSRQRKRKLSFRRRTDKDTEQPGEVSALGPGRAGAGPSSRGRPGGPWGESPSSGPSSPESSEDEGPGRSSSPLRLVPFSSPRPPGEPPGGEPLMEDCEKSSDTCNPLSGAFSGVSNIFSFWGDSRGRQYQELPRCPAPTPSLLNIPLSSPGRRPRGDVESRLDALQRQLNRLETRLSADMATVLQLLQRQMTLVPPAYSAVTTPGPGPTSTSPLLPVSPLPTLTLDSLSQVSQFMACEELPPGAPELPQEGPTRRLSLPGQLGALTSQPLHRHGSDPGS
row,SMILES,"hERG current change (%, negative = inhibition) at 10uM"
1,CSc1nc(Oc2ccc3ccccc3c2)c2sccc2n1,1.88%
2,CCN(CC)S(=O)(=O)c1ccc(C(=O)OCC(=O)N2CCN(C(=O)c3ccco3)CC2)cc1,-37.2%
3,CCC(c1nnc(SCC(=O)NC23CC4CC(CC(C4)C2)C3)o1)N(C)C (centres unmarked),6.71%
4,CC1CN(C(=O)c2ccccc2Sc2ccccc2C#N)CC(C)O1 (centres unmarked),4.5%
5,Cc1occc(=O)c1O,8.04%
6,O=C(O)c1cccc(N2CCCC2)c1,-4.74%
7,O=C(/C=C/c1ccco1)NC(=S)Nc1cccc(-c2nc3ccccc3o2)c1,13.9%
8,COc1ccccc1C(=O)NC(CCSC)C(=O)NNC(=O)c1csc(N2CCOCC2)n1 (centres unmarked),10.2%
9,CCOc1ccc(C(=O)Nc2cccc(C)n2)cc1,0.201%
10,Cc1ccn2c(NC3CCCC3)c(-c3ccccn3)nc2c1,-17.2%
11,NNC(=O)c1c[nH]c2ccc(OCc3ccccc3)cc12,4.59%
12,CC(=O)c1ccc(N2CCN(CC(O)COC(c3ccccc3)c3ccccc3)CC2)cc1 (centres unmarked),-66.5%
13,C=CCNC(=O)c1cc2sccc2n1C,5.7%
14,CCN1CCN(C(=S)Nc2ccc3nc4n(c(=O)c3c2)CCCCC4)CC1,1.83%
15,CC(C)CC(C)NNC(=O)c1cc2ccccc2[nH]1 (centres unmarked),0.614%
16,COc1cc(CC(NC(C)=O)C(=O)NC2CCN(S(=O)(=O)c3ccc(NC(C)=O)cc3)CC2)cc(OC)c1 (centres unmarked),21.7%
17,CCCS(=O)(=O)c1nc(S(=O)(=O)c2ccc(C)cc2)c(N2CCOCC2)s1,17.5%
18,CCCSc1nc2c(cnn2-c2ccccc2)c(=O)[nH]1,-12.2%
19,CCCC1CC(C#N)N(N(C)C)C1=C(C#N)C#N (centres unmarked),0.118%
20,CC(=O)NC(C)c1nc2ccccc2n1Cc1ccccc1F (centres unmarked),-12.8%
21,COc1ccc(C)cc1NC(=O)C1CCN(C(=O)Cc2ccccc2)CC1,8.85%
22,COc1ccc(Nc2ncc(F)c(N3CCOCC3)n2)cc1,17.6%
23,N#CCCN(NC1=NS(=O)(=O)c2ccccc21)C(=O)c1ccccc1Br,7.17%
24,O=C1COc2ccc(C(=O)NC3CC3)cc2N1,9.66%
25,Cn1c(=O)c2c(nc(NCCO)n2CCCc2ccccc2)n(C)c1=O,8.23%
26,CNC(=O)COC(=O)c1c2c(nc3ccccc13)CCC2,-15.9%
